These results are taken from PubChem BioAssay (NCI).

“And” between values parts separate entries of the source, which are not always exact repeats. Equal entries are not always repeated.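 Five compound concentrations were applied to cells in 96-well plates for 48 hours; endpoints were derived by simple linear interpolation of the resulting dose-response curve. Abbreviation: GI50, concentration required for 50% inhibition of growth. TGI marks complete inhibition of growth.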

The subject of the experiment is NCI-H322M lung. Put plainly: NCI anticancer screen, dose series, 48 h.
As for `CNC(=O)c1ncccc1Nc1nc(Nc2cc3c(cc2OC)CCCN3C(=O)CN(C)C)nc2[nH]ccc12`, the GI50 is 0.953 µM and the TGI worked out at 6.28 µM.
Consider `O=C(O)c1nc2ccc(C(F)(F)F)cc2[nH]c1=O`, for which the TGI was above 100 µM.
Regarding `Cc1ccc(O)cc1Nc1ccnc2ccc(S(C)(=O)=O)cc12`, the GI50 is 5.42 µM and the TGI is above 25 µM.
The compound `S=C(Cc1ccc2c(c1)Sc1ccccc1O2)N1CCOCC1` yielded a TGI above 100 µM.
For `COc1cc2nc(-c3ccc(Cl)cc3)cc(OCCCN3CCOCC3)c2cc1OC`, the GI50 was above 100 µM and the TGI is above 100 µM.
`CC(=O)ON1CCCC(P(=O)(OCOC(=O)C(C)(C)C)OCOC(=O)C(C)(C)C)C1=O` (stereo unspecified): the GI50 was 0.901 µM and the TGI was determined as 11.3 µM.
In turn, `O=c1oc2ccc3ccccc3c2cc1-c1cn2ccsc2n1` displayed a TGI above 100 µM.
Same read-out and setting: to `O=c1c2ccccc2sc2c(CO)ccc(NCCN3CCCCC3)c12` belongs 13.3 µM.
For the compound `COc1ccc2c(c1)c(-c1nc(-c3c[nH]c4ncccc34)cs1)cn2CCCN1CCOCC1`, the GI50 was 1.96 µM and the TGI stood at 8.2 µM.
As for `N#CC(C(=O)C(=O)Nc1c(Cl)cccc1Cl)c1ccccc1` (stereo unspecified), the GI50 is above 100 µM and the TGI was above 100 µM.
As to `O=[N+]([O-])c1ccccc1C1SCc2nc3ccccc3n21` (stereo unspecified), the TGI is above 100 µM.
Take `O=C(/C=C/C12c3ccccc3C(c3ccccc31)C1C(=O)NC(=O)C12)c1ccccn1` (stereo unspecified): the GI50 is 1.45 µM and the TGI was determined as 2.86 µM.
In turn, `Cc1c2cccc-2c2cc(O)c3ccccc3c2n1-c1ccc(N(C)C)cc1` showed a TGI of 22.9 µM.
The same measure, in the same setting: next, `C[C@]12Cc3cn[nH]c3C(=O)C1CC[C@@H]1C2CC[C@@]2(C)C1CC[C@@H]2O` (stereo partly specified): above 100 µM; `OCc1cn(Cc2ccccc2)c2ccccc12`: above 100 µM; `O=[N+]([O-])c1cccc(C2=NN(c3ccccc3)C3c4cc(Br)ccc4OCC23)c1` (stereo unspecified): above 100 µM.
As for `CN(C)CCN(c1ccccn1)c1ccccn1`, the TGI was above 100 µM.
Regarding `COc1ccc2nc(NC(=O)/C(C#N)=C/c3ccccc3)sc2c1`, the TGI was above 100 µM.
On the same count and under the same terms, next, `CCOC1C=CC(=O)C(CO)O1` (stereo unspecified): 33.6 µM.
Turning to `Nc1ncnc2c1N=C(c1ccc3c(c1)OCO3)CC(c1ccc(Cl)cc1)N2` (stereo unspecified), the GI50 is 16.9 µM and the TGI was above 100 µM.
`COc1cc(/C=C2\C[C@H]3[C@@H]4CCc5cc(OCCN6CCCC6)ccc5[C@H]4CC[C@]3(C)C2=O)cc(OC)c1OC` returned a TGI of 10.1 µM.
Turning to `Cn1nccc1Nc1nccc(-c2ccn([C@H](CO)c3ccc(Cl)c(F)c3)c(=O)c2)n1`, the GI50 is 8.91 µM and the TGI is above 100 µM.
Compound `COc1cc(C)c(CC/C(C)=C/Cc2cc(O)ccc2O)c(C)c1C` displayed a TGI above 25 µM.
On to `COC(=O)OC1C(O[C@H]2C[C@H]3[C@@H]4CC=C5C[C@@H](O)CC[C@]5(C)[C@H]4CC[C@]3(C)[C@H]2[C@H](C)C(=O)CCC(C)C)OCC(O)C1OC1OCC(O)C(O)C1OC(=O)c1ccc(OC)cc1` (stereo partly specified), for which the GI50 was 0.762 µM and the TGI came to 19.1 µM.
The corresponding values for `COc1cc(CNc2nc3cc(N)cc(N)c3nc2-c2ccccc2)cc(OC)c1` are 44.3 µM and above 100 µM.
Consider `COc1ccc2c(N)ncc(C#Cc3cc(C(=O)Nc4ccc(CN5CCN(C)CC5)c(C(F)(F)F)c4)cnc3C)c2c1`, for which the GI50 was 1.91 µM and the TGI amounted to 6.92 µM.
The compound `CCCCCCN(CCCCCC)C(=S)N/N=C(\C)c1ccccn1` yielded a TGI of 2.57 µM.
For `CCCCCCCCCCCCCCCCCCOc1ccccc1CC(=O)NCC[N+]1(C)CCOCC1`, the GI50 is 2.41 µM and the TGI amounted to 7.61 µM.
As to `O=c1c(F)cn2c(=O)n1CCCCCCCn1c(=O)c(F)cn(c1=O)CCCCCCC2`, the TGI was above 100 µM.
Still for that read-out and setting: next, `CN(C)C(=O)C(F)(F)C(c1ccc(F)cc1)C1C(=O)N(C)C(=O)N(C)C1=O` (stereo unspecified): above 100 µM.
In the case of `COC1N(C2CC(O)C(CO)O2)C(=O)NC(=O)C1(F)Br` (stereo unspecified), the GI50 was above 5 µM and the TGI was above 100 µM.
For `Cc1ccc2c(-c3ccnc(Nc4ccc5c(c4)OCCO5)n3)c(-c3ccc(C(F)(F)F)cc3)nn2n1`, the GI50 is 16.7 µM and the TGI was above 25 µM.
For `CN[C@@H](C)C(=O)N[C@H]1CN(S(=O)(=O)c2cccc(S(=O)(=O)N3CC[C@H]4CC[C@@H](C(=O)NC(c5ccccc5)c5ccccc5)N4C(=O)[C@@H](NC(=O)[C@H](C)NC)C3)c2)CC[C@H]2CC[C@@H](C(=O)NC(c3ccccc3)c3ccccc3)N2C1=O` the same measures were 15.7 µM and 29.2 µM.
On to `[N-]=[N+]=CC(=O)C1CCCN1C(=O)c1ccccc1` (stereo unspecified), for which the TGI is above 10 µM.
In turn, `O=C1[C@@H]2C(c3c(Cl)cccc3Cl)=NO[C@@H]2C(=O)N1c1ccc(Cc2ccc(N3C(=O)[C@H]4C(c5c(Cl)cccc5Cl)=NO[C@H]4C3=O)cc2)cc1` registered a TGI above 100 µM.
For `CCOC(=O)c1csc(NC(=O)C(C)N2CCCC2)n1` (stereo unspecified), the TGI is above 100 µM.
Same read-out and setting: next, `O=c1oc2ccccc2c(O)c1Cc1ccc(Cc2c(O)c3ccccc3oc2=O)cc1`: above 100 µM; `O=C1NC(=O)c2c1n(Cc1ccccc1)c(=O)n2Cc1ccccc1`: above 100 µM.
Turning to `CC1(C)OC[C@@H]([C@@]2(CO[Si](c3ccccc3)(c3ccccc3)C(C)(C)C)CC=CC(=O)O2)O1`, the GI50 is 15.5 µM and the TGI came to 35.1 µM.
The corresponding values for `CCCCCOc1ccc(/C=N/Nc2cc(C)nc3ccc(Cl)cc23)cc1` are 1.74 µM and 3.14 µM.
Turning to `N#Cc1nc2c(S(=O)(=O)c3ccc(Cl)cc3)c(N)n(Nc3cccc(Cl)c3)c2nc1C#N`, the GI50 is 0.12 µM and 0.0147 µM.
With `COc1ccc2c(c1)C(=O)c1c-2c(Nc2ccccc2OC)nc2ccccc12`, the GI50 was above 100 µM and the TGI was above 100 µM.
The compound `Cc1nnc2n(c1=O)CCCN2C` came in with a TGI above 100 µM.
For the compound `N#CC1(c2ccc(NC(=O)c3cccnc3NCc3ccncc3)cc2)CCCC1`, the GI50 was 30.6 µM and the TGI was above 100 µM.
For `COc1ccc(C(=O)c2cc(OC)c(OC)c(OC)c2OC)cc1O` the same measures were 5.13 µM and above 100 µM.
Consider `Clc1cccc(-c2sc(-c3cccs3)cc2Cc2cccs2)c1`, for which the TGI is above 10 µM.
The compound `CCOC(=O)C1C(c2ccc(Cl)cc2Cl)NC(c2ccc(C)cc2)C(C(=O)OC)S1(=O)=O` (stereo unspecified) returned a TGI above 100 µM.
The same measure, in the same setting: next, `O=C(NC12CC3CCC1CC(C3)C2)[C@@H]1CCCN1C(=O)OCc1ccccc1` (stereo partly specified): above 100 µM; `CN(CCN1CCCC1)C1CCc2cc(Cl)c(Cl)cc2C1` (stereo unspecified): 29.7 µM.
For the compound `COc1ccc(OC)c(NCC(=O)n2nc(/C=C\c3ccc(O)c(OC)c3)cc2/C=C\c2ccc(O)c(OC)c2)c1`, the GI50 is 2.95 µM and the TGI came out at 13.9 µM.
The corresponding values for `CCNc1nc(O)c(/C=C2\C=Nc3ncccc32)s1` are 2.56 µM and above 100 µM.
As for `O=C1NC2=C(CCCCC/C2=N\O)C12CCCCCC2`, the TGI is above 100 µM.
On the same count and under the same terms, next, `O=c1cc(O)cc2n1CCC2`: above 100 µM.
Still for that read-out and setting: to `C[C@@H]1CC[C@@]2(C)C(C(=O)O)=CCCC2[C@@]1(C)CC(=O)c1ccoc1` (stereo partly specified) belongs above 25 µM; to `O=c1c2c3c(sc2[nH]c(=S)n1-c1ccccc1)CCCc1ccc([N+](=O)[O-])cc1-3`, above 100 µM.
Turning to `C[C@]12CC[C@H]3[C@@H](CCC4=CC(=O)CC[C@@]43C)[C@@H]1CC[C@@H]2c1csc(N)n1`, the GI50 is 13.2 µM and the TGI is 29.4 µM.
`O=C1CC(c2ccccc2)Oc2ccccc21` (stereo unspecified): the TGI was above 100 µM.
Compound `O=C1Oc2ccccc2C(=O)/C1=C1/C=C(c2ccccc2)SS1` had a TGI above 100 µM.
Turning to `CC(C)NC(=O)OCc1c(COC(=O)NC(C)C)n(C)c2c1ccc1sccc12`, the TGI is above 65.4 µM.
The same measure, in the same setting: to `O=c1[nH]c(NCc2ccncc2)nc2nc[nH]c12` belongs above 100 µM; to `COC(=O)CCC(NC(=S)N/N=C/c1cccs1)C(=O)OC` (stereo unspecified), above 100 µM.
Same read-out and setting: to `OCc1ccc2c(c1)CC1(C2)Cc2cc3c(cc2C1O)CCC3` (stereo unspecified) belongs 49.8 µM.
Same read-out and setting: to `Cc1cc(O)c2c(c1)C(=O)C=CC2=O` belongs 35.5 µM and > 54.9 µM; to `COc1ccc(N=Nc2c(-c3c(OC)cc4occc4c3OC)[nH]c(=O)c(C#N)c2C)cc1`, above 100 µM; to `COc1ccc(C)cc1N1C(=O)C2ON(Cc3ccc(CC(N)=O)cc3)C(c3c4ccccc4c(Cl)c4ccccc34)C2C1=O` (stereo unspecified), above 100 µM.
As for `COc1cc(Nc2cnc3ccc(C(F)(F)F)cc3n2)cc(OC)c1OC`, the TGI was above 100 µM.
On the same count and under the same terms, next, `COC(=O)C1C(=O)O[C@@H](c2ccc3c(c2)OCO3)C1C(=O)OC` (mixture of isomers): above 100 µM; `CC(C)C(Br)CCC1=CCC(Br)(Br)C1` (stereo unspecified): 30.5 µM.
As for `CC1(C)N=C(N)N=C(N)N1c1ccc(CCC(=O)Nc2ccc(S(=O)(=O)F)cc2)cc1`, the GI50 is 4.76 µM and the TGI is above 100 µM.
Turning to `CCn1cc(C(=O)O)c(=O)c2cc(F)c(N3CCN(S(=O)(=O)c4cccc5ccccc45)CC3)cc21`, the GI50 is 2.6 µM and the TGI was 8 µM.
The corresponding values for `CCN(CC)CCCNc1ccc(C)c2sc3ccccc3c(=O)c12` are 1.56 µM and 3.47 µM.
The corresponding values for `CNCc1cccc2c1OCCOCCOCCN(C)S(=O)(=O)c1ccc(cc1)-c1cnc(N)c(n1)C(=O)N2` are 1.06 µM and 3.03 µM.
Turning to `CC(=O)c1ccc(Oc2c3ccccc3nc3ccccc23)cc1`, the TGI was found to be 33 µM.
As to `CSC1=Nc2c(c(C)c(C)n2COC(CO)CO)C2=NC(=O)CN12`, the GI50 was above 100 µM and the TGI was above 100 µM.
As for `CSCC[C@@H](NC(=O)[C@H](CC(C)C)NC(=O)C(Cc1cnc[nH]1)NC(=O)CNC(=O)[C@@H](NC(=O)[C@H](C)NC(=O)[C@H](Cc1c[nH]c2ccccc12)NC(=O)[C@H](CCC(N)=O)NC(=O)[C@@H](N)CC(N)=O)C(C)C)C(N)=O` (stereo partly specified), the TGI was above 100 µM.
Take `O=C1C=C[C@H](O)[C@@]2(CO)O[C@@H]12`: the GI50 was 24.1 µM and the TGI came to 69 µM.
Take `COc1ccc(OC)c(/C=C/c2nc(=S)n(-c3ccc(Cl)cc3)[nH]2)c1`: the GI50 is 26.9 µM and the TGI was above 100 µM.
For `C[n+]1cc2cc(O)c(O)cc2c2ccc3cc(O)c(O)cc3c21`, the TGI amounted to 9.84 µM.
`CC1CC(N2CCOCC2)=Nc2ccccc2N1C` (stereo unspecified): the TGI is above 100 µM.
On to `Cc1nc(N)c(N2CCN(C#N)CC2)c(=O)[nH]1`, for which the TGI was above 100 µM.
